Source: the supplement of paper PMC4967469
Lines with a small IC50 respond at low doses; where the fit passes the top or lowest dose, that dose stands as a limit. The AUC spans the tested range (256-fold, ending at the top dose) of the same fit; the more sensitive the line, the further below 1. Where the top dose is marked as inferred, it is not printed in the source and was worked back from the curve model.

Columns and labels:
Assay in all cases: Viability of human cancer cell lines after 72 h of drug (GDSC screen)
SGC0946 = compound: CC(C)N(CCCNC(=O)Nc1ccc(C(C)(C)C)cc1)C[C@H]1O[C@@H](n2cc(Br)c3c(N)ncnc32)[C@H](O)[C@@H]1O [SGC0946]; settings: top dose 0.5 µM; top dose inferred
Protocol: (§1)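 Human cancer cell lines in 384-well plates, medium with 10% serum, drug for 72 h over a 256-fold dose range (nine 2-fold or five 4-fold steps up to the top dose). Adherent lines were fixed and stained with the nucleic acid dye Syto60, suspension lines read with resazurin; signal relative to control wells, capped at 0 and 100%. One two-parameter sigmoid per drug and line, fitted in a mixed model over all curves with the slope shared within a line.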

Bryostatin 1 = compound: CCC/C=C/C=C/C(=O)O[C@H]1/C(=C/C(=O)OC)C[C@H]2C[C@H]([C@@H](C)O)OC(=O)C[C@H](O)C[C@@H]3C[C@H](OC(C)=O)C(C)(C)[C@](O)(C[C@@H]4C/C(=C/C(=O)OC)C[C@H](/C=C/C(C)(C)[C@]1(O)O2)O4)O3 [Bryostatin 1]; settings: top dose 0.008 µM; top dose inferred
Protocol: as §1

GW-2580 = compound: COc1ccc(COc2ccc(Cc3cnc(N)nc3N)cc2OC)cc1 [GW-2580]; settings: top dose 20 µM; top dose inferred
Protocol: as §1

Lenalidomide = compound: Nc1cccc2c1CN(C1CCC(=O)NC1=O)C2=O [Lenalidomide]; settings: top dose 5 µM; top dose inferred
Protocol: as §1

Cell Line	AUC (SGC0946)	IC50 (SGC0946) [nM]	AUC (Bryostatin 1)	IC50 (Bryostatin 1) [nM]	AUC (GW-2580)	IC50 (GW-2580) [nM]	AUC (Lenalidomide)	IC50 (Lenalidomide) [nM]
JIMT-1 (breast, adherent)	0.983	> 500	0.945	> 8	0.98	> 20000	0.974	> 5000
JURL-MK1 (chronic myeloid leukaemia, suspension)	0.985	> 500	0.969	> 8	0.987	> 20000	0.953	> 5000
JVM-2 (lymphoid neoplasm, suspension)	0.975	> 500	0.975	> 8	0.982	> 20000	0.953	> 5000
JVM-3 (lymphoid neoplasm, suspension)	0.976	> 500	0.987	> 8	0.986	> 20000	0.978	> 5000
JiyoyeP-2003 (Burkitt lymphoma, suspension)	0.989	> 500	0.991	> 8	0.991	> 20000	0.989	> 5000
K2 (melanoma, adherent)	0.975	> 500	0.977	> 8	0.971	> 20000	0.972	> 5000
KARPAS-45 (lymphoblastic leukaemia, suspension)	0.991	> 500	0.939	> 8	0.989	> 20000	0.987	> 5000
KARPAS-231 (B-cell leukaemia, suspension)	0.988	> 500	0.944	> 8	0.98	> 20000	0.98	> 5000
KARPAS-299 (anaplastic large cell lymphoma, suspension)	0.986	> 500	0.992	> 8	0.988	> 20000	0.978	> 5000
KARPAS-620 (haematopoietic neoplasm, suspension)	0.986	> 500	0.981	> 8	0.991	> 20000	0.99	> 5000
KE-37 (lymphoblastic leukaemia, suspension)	0.994	> 500	0.987	> 8	0.994	> 20000	0.991	> 5000
KM-H2 (Hodgkin lymphoma, suspension)	0.992	> 500	0.993	> 8	0.993	> 20000	0.986	> 5000
KMH-2 (thyroid, adherent)	0.989	> 500	0.919	> 8	0.971	> 20000	0.99	> 5000
KMOE-2 (acute myeloid leukaemia, suspension)	0.989	> 500	0.988	> 8	0.983	> 20000	0.968	> 5000
KMRC-20 (kidney, adherent)	0.988	> 500	0.98	> 8	0.986	> 20000	0.985	> 5000
KON (head and neck, adherent)	0.985	> 500	0.904	> 8	0.987	> 20000	0.987	> 5000
KP-2 (pancreas, adherent)	0.985	> 500	0.981	> 8	0.979	> 20000	0.986	> 5000
KP-3 (pancreas, adherent)	0.952	> 500	0.982	> 8	0.984	> 20000	0.984	> 5000
KP-N-YN (neuroblastoma, adherent)	0.985	> 500	0.986	> 8	0.983	> 20000	0.985	> 5000
KU812 (chronic myeloid leukaemia, suspension)	0.987	> 500	0.972	> 8	0.987	> 20000	0.988	> 5000

Cell Line	AUC (SGC0946)	IC50 (SGC0946) [nM]	AUC (Bryostatin 1)	IC50 (Bryostatin 1) [nM]	AUC (GW-2580)	IC50 (GW-2580) [nM]	AUC (Lenalidomide)	IC50 (Lenalidomide) [nM]
KU-19-19 (bladder, adherent)	0.986	> 500	0.986	> 8	0.987	> 20000	0.987	> 5000
KYM-1 (rhabdomyosarcoma, adherent)	0.991	> 500	0.991	> 8	0.976	> 20000	0.976	> 5000
KYSE-50 (oesophagus, adherent)	0.989	> 500	0.925	> 8	0.961	> 20000	0.99	> 5000
KYSE-70 (oesophagus, adherent)	0.985	> 500	0.978	> 8	0.987	> 20000	0.972	> 5000
KYSE-150 (oesophagus, adherent)	0.988	> 500	0.95	> 8	0.989	> 20000	0.989	> 5000
KYSE-220 (oesophagus, adherent)	0.984	> 500	0.979	> 8	0.984	> 20000	0.976	> 5000
KYSE-450 (oesophagus, adherent)	0.986	> 500	0.988	> 8	0.988	> 20000	0.988	> 5000
KYSE-510 (oesophagus, adherent)	0.992	> 500	0.992	> 8	0.992	> 20000	0.992	> 5000
KYSE-520 (oesophagus, adherent)	0.978	> 500	0.931	> 8	0.945	> 20000	0.944	> 5000
L-428 (Hodgkin lymphoma, suspension)	0.989	> 500	0.987	> 8	0.991	> 20000	0.989	> 5000
LAMA-84 (chronic myeloid leukaemia, suspension)	0.985	> 500	0.958	> 8	0.985	> 20000	0.967	> 5000
LB771-HNC (head and neck, adherent)	0.98	> 500	0.963	> 8	0.967	> 20000	0.723	1600
LB1047-RCC (kidney, adherent)	0.98	> 500	0.982	> 8	0.98	> 20000	0.983	> 5000
LC4-1 (lymphoblastic leukaemia, suspension)	0.982	> 500	0.984	> 8	0.951	> 20000	0.983	> 5000
LC-1-sq (lung squamous cell carcinoma, adherent)	0.983	> 500	0.982	> 8	0.98	> 20000	0.947	> 5000
LCLC-97TM1 (large cell lung carcinoma, adherent)	0.957	> 500	0.967	> 8	0.983	> 20000	0.981	> 5000
LCLC-103H (large cell lung carcinoma, adherent)	0.99	> 500	0.99	> 8	0.989	> 20000	0.924	> 5000
LK-2 (lung squamous cell carcinoma, adherent)	0.988	> 500	0.897	> 8	0.987	> 20000	0.989	> 5000
LN-18 (glioma, adherent)	0.99	> 500	0.978	> 8	0.992	> 20000	0.994	> 5000
LN-405 (glioma, adherent)	0.982	> 500	0.866	> 8	0.955	> 20000	0.976	> 5000

Cell Line	AUC (SGC0946)	IC50 (SGC0946) [nM]	AUC (Bryostatin 1)	IC50 (Bryostatin 1) [nM]	AUC (GW-2580)	IC50 (GW-2580) [nM]	AUC (Lenalidomide)	IC50 (Lenalidomide) [nM]
LNZTA3WT4 (glioma, adherent)	0.981	> 500	0.965	> 8	0.981	> 20000	0.988	> 5000
LOU-NH91 (lung squamous cell carcinoma, adherent)	0.96	> 500	0.979	> 8	0.98	> 20000	0.986	> 5000
LOUCY (T-cell lymphoblastic leukaemia, suspension)	0.991	> 500	0.989	> 8	0.992	> 20000	0.992	> 5000
LS-180 (large intestine, adherent)	0.983	> 500	0.983	> 8	0.982	> 20000	0.982	> 5000
LS-513 (large intestine, adherent)	0.986	> 500	0.974	> 8	0.987	> 20000	0.986	> 5000
LU-135 (small cell lung carcinoma, suspension)	0.991	> 500	0.981	> 8	0.982	> 20000	0.991	> 5000
LXF-289 (lung adenocarcinoma, adherent)	0.985	> 500	0.962	> 8	0.984	> 20000	0.986	> 5000
LoVo (large intestine, adherent)	0.97	> 500	0.904	> 8	0.985	> 20000	0.968	> 5000
M14 (melanoma, adherent)	0.982	> 500	0.816	4.75	0.986	> 20000	0.987	> 5000
MC116 (B-cell lymphoma, suspension)	0.998	> 500	0.997	> 8	0.999	> 20000	0.999	> 5000
MDA-MB-175-VII (breast, adherent)	0.986	> 500	0.981	> 8	0.983	> 20000	0.988	> 5000
MDA-MB-330 (breast, adherent)	0.982	> 500	0.97	> 8	0.971	> 20000	0.949	> 5000
MDA-MB-361 (breast, adherent)	0.987	> 500	0.977	> 8	0.989	> 20000	0.959	> 5000
MDA-MB-415 (breast, adherent)	0.913	> 500	0.972	> 8	0.954	> 20000	0.983	> 5000
MDA-MB-436 (breast, adherent)	0.981	> 500	0.973	> 8	0.962	> 20000	0.983	> 5000
MDA-MB-453 (breast, adherent)	0.984	> 500	0.984	> 8	0.952	> 20000	0.986	> 5000
MDA-MB-468 (breast, adherent)	0.978	> 500	0.872	7.1	0.966	> 20000	0.988	> 5000
MDST8 (large intestine, adherent)	0.929	> 500	0.983	> 8	0.984	> 20000	0.981	> 5000
